The subject of this experiment is SK-MEL-2 multi-cell spheroids, viability. The experiment in a line: Anticancer human tumor SK-MEL-2 cell line growth inhibition [TAK].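 As to all read-outs here: spheroids exposed to drugs for seven days before readout.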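 As to viability, T/C: percent of DMSO vehicle control luminescence so 100% = untreated viability.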 The settings on record: for viability, T/C: stronger effect = lower value. The text has this:
Combinatorial screen of targeted agents with TAK-243 and ipatasertib in multi-cell type tumor spheroids
A high-throughput screen of multi-cell type tumor spheroids was designed to identify active combinations of targeted small molecules and TAK-243 or ipatasertib. Complex spheroids include a stromal component modeled by human endothelial cells (HUVEC) and fibroblasts modeled by human mesenchymal stem cells (MSCs). The concentration ranges selected for each drug and investigational agent were based upon clinically achievable concentrations if the clinical Cmax of the agent was known.
Compounds. The drugs and investigational agents: TAK-243 (785004), ipatasertib (767898), everolimus (733504), selumetinib (741078), bortezomib (756655), trametinib (758246), ixazomib (758254), vemurafenib (761431), dabrafenib (764134), sapanisertib (764658), alpelisib (765974), and copanlisib (816437), were obtained from the National Cancer Institute (NCI) Developmental Therapeutics Program Chemical Repository. The FDA-approved anticancer drug set is available from the NCI Developmental Therapeutics Program. […] The stock solutions were prepared in dimethyl sulfoxide (DMSO, Sigma-Aldrich, St. Louis, MO, cat. D2650) at 800-fold the tested concentration and stored at -70 degrees C prior to their use. All drugs and investigational agents were tested over a range starting from a high concentration at or near the clinical Cmax and decreasing in half-log increments. If the clinical Cmax for an agent had not been determined, the highest concentration tested was 10 microM.
NCI60 Cell Culture. NCI60 cell lines were obtained from the NCI Developmental Therapeutics Program Tumor Repository. For each lot of cells, the Repository performed Applied Biosystems AmpFLSTR Identifiler testing with PCR amplification to confirm consistency with the published Identifier STR profile for each cell line. Cells were kept in continuous culture for no more than 20 passages. The optimal seeding densities for each of the cell lines at each time point assessed were determined prior to performing the concentration response studies. Briefly, the NCI60 human tumor lines were grown as monolayers in RPMI 1640 medium supplemented with 10% FBS and 2 mmol/L L-glutamine.
An additional 2 lines were from the NCI60 cell line panel including melanomas, MALME-3M and SK-MEL-2. Pooled donor human umbilical vein endothelial cells (HUVEC, Lonza, cat. CC-2519) and human mesenchymal stem cells (hMSC, Lonza, cat. PT-2501) were purchased from Lonza (Walkersville, MD).
PDMR cell lines were grown in complete medium (DC medium): Dulbecco's modified Eagle's medium (DMEM)/F12 supplemented with 5% fetal bovine serum (FBS), 2 mM L-glutamine, 100 U/mL penicillin and 100 µg/ml streptomycin, 0.4 µg/ml hydrocortisone, 10 ng/ml epidermal growth factor (EGF) recombinant human protein, 24 µg/mL adenine, and 0.1 mg/mL primocin. During culture from frozen stock vials, PDMR cells were cultured in the same medium containing 10 µM Y-27632 (see Table 3). The PDCs were cultured in complete DMEM/F12 media without 10 microM Y-27632 dihydrochloride for at least two passages prior to the screen. The pooled donor HUVEC and hMSC were cultured in endothelial cell growth medium 2 (PromoCell, Heidelberg, Germany, cat. C-22011) and mesenchymal stem cell growth medium 2 (PromoCell, cat. C-28009), respectively. For all experiments, HUVEC and hMSC were used at passages </=5.
For the pre-screen, cell seeding densities were determined from a titration spanning the range from 5,000 to 313 cells per well. The mct-spheroids including 60% malignant cells, 25% HUVEC and 15% MSC dispensed as a mixture into U-bottom Ultra-Low Attachment 384-well plates (Corning, NY)
High-throughput Drug Combination Screening.
Prior to their inoculation into 384-well plates, malignant cells, HUVEC, and hMSC were removed from T flasks using TrypLE express (Thermo Fisher Scientific, cat. 12605036) and harvested by centrifugation for 5 min at 233 x g. […]

Each structure is given as a SMILES string. The source holds more than one record for some entries. The list is limited to them. An entry can have further records. Values given together are repeats (runs, samples, wells, individuals or studies). Marks such as [2022-09] give the month of the run. Counts like (3×) give the number of equal values in this list.

In PubChem BioAssay AID2060344 (Molecular Pharmacology Branch, DTP, NCI, 2025) one finds viability, T/C and IC50 data, which are given here for one compound.

A word on the viability, T/C: it is the result in the treated group divided by that in the control group, in per cent. The IC50 is the concentration at which inhibition is half-maximal. With `CC(C)NCC(C(=O)N1CCN(c2ncnc3c2C(C)CC3O)CC1)c1ccc(Cl)cc1` (stereo unspecified), the viability, T/C runs as follows: (compound alone 0.3 µM) 118%, 112% [2020-02] and 97.3, 95.1, 99.3, 90.3, 98.2, 96.5, 99.9, 96.2% [2020-03]; (compound alone 0.949 µM) 113%, 118% [2020-02] and 84.7, 78.9, 82.8, 86.5, 81.8 (2×), 81.6, 85% [2020-03]; (compound alone 3 µM) 113%, 109% [2020-02] and 59.2, 58.5, 65.8, 60.1, 65.2, 66.2, 68.5, 69.3% [2020-03]; (compound alone 9.49 µM) 108%, 112% [2020-02] and 49.9, 53.7, 57, 53.4, 55.1, 58.4, 52.9, 56.2% [2020-03]; (compound alone 30 µM) 117%, 114% [2020-02] and 47.3, 46.3, 45.5, 45.3, 46.5, 50.3, 48.4, 49.6% [2020-03]. For the same compound, the IC50 (drug combinations, compound alone, run of 03/19/2020) is given as 8.79 µM, 13.5 µM, 18.8 µM, 9.09 µM, 18.6 µM, > 30 µM, 20.4 µM, 27.7 µM.
